Data as given in publication PMC6919601, “Identification of Plasmodium dipeptidyl aminopeptidase allosteric inhibitors by high throughput screening” (PLoS ONE, 2019).
The campaign covered roughly 110,000 compounds. About 230 (0.21%) showed an effect of 50% or more. This is one part of the list.
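Also: 30 min substrate incubation versus DMSO and 10 µM JCP410 controls.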

These molecules were tested against DPAP1 (Plasmodium falciparum, UniProt Q8IIJ9) (assay: primary screen, percent inhibition; read by cleavage of a fluorogenic dipeptide substrate; higher = more effect of the substance).
Chain of DPAP1 (Q8IIJ9 whole entry, looked up): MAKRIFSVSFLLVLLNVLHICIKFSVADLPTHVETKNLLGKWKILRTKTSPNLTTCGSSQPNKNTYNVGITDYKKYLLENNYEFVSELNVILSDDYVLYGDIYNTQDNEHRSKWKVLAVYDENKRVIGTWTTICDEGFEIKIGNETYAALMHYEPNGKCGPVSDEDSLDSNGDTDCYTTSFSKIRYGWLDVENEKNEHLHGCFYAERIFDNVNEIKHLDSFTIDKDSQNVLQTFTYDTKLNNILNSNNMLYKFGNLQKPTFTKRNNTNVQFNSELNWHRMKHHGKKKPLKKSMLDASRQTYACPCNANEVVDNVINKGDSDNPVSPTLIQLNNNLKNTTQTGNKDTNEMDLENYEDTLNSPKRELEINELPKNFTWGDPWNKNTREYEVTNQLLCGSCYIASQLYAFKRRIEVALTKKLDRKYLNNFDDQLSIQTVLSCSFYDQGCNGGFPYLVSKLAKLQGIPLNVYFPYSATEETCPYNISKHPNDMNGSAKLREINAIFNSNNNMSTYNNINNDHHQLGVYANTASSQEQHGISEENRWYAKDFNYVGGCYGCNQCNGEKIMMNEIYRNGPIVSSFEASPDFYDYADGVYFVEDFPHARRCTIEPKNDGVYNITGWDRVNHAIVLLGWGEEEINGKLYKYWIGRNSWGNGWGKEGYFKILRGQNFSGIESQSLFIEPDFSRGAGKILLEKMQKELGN
Set-up: species or system P. falciparum D10 trophozoite lysates; single well
Protocol: HTS was performed in black 384-well plates. The first and last two columns of each plate contained our negative (DMSO) and positive (10 μM JCP410) controls, and the 20 central columns the test compounds at 10 μM. Compounds were first diluted 50-fold into assay buffer (50 mM sodium acetate, 5 mM MgCl2, 10 mM β-mercaptoethanol, and 0.1% CHAPS, pH 5.5) from a 10 mM DMSO stock plates. One microliter of this 200 μM intermediate stock plate was dispensed into the assay plate. […] After 30 min, the reaction was quenched with 20 μL of 0.5 M acetic acid, and the fluorescent intensity measured at 523 nm (λex = 492 nm) using an Analyst HT multimode plate reader (Molecular Devices).
`Cc1ccc(C2=NN(CC(=O)N3CCN(Cc4ccccc4)CC3)C(=O)CC2)cc1` was tested, and the “% Inhibition @ 10 uM” value was -2.99%.
`Cc1cccc(C(=O)Nc2ccc(S(=O)(=O)Nc3nccs3)cc2)c1` was tested, and the “% Inhibition @ 10 uM” value was 3.53%.
In the case of `CC(C)C[C@H](NC(=O)N(C)c1ccccc1)C(=O)NCC#N`, the “% Inhibition @ 10 uM” value is reported as -3.48%.
With `C=C(C)CN(CC)C1CCN(Cc2ccccc2)CC1` the “% Inhibition @ 10 uM” value was -5.94%.
For `CCOCC(=O)Nc1nc2ccc(OCC)cc2s1`, the “% Inhibition @ 10 uM” value was -6.05%.
In the case of `CC1=C(C(=O)OC2CCCC2)C(c2ccccc2Cl)C2=C(O)CC(C)(C)CC2=N1` (centres unmarked), the “% Inhibition @ 10 uM” value is reported as 4.74%.
`NC(=O)CC(Nc1c2ccccc2nc2ccccc12)C(=O)O` (centres unmarked) was tested, and the “% Inhibition @ 10 uM” value was -1.69%.
With `CN(Cc1ccccc1)C(=O)c1cc2c(=O)n3ccccc3nc2n1C` the “% Inhibition @ 10 uM” value was -1.55%.
With `CCC(=O)Nc1ccc(Cl)c(NC(=O)c2ccc(C)cc2C)c1` the “% Inhibition @ 10 uM” value was -0.519%.
For `Cc1ccc(Cl)cc1N1CCN(C(=O)C2C3CCC(C3)C2C(=O)O)CC1` (centres unmarked), the “% Inhibition @ 10 uM” value was 2.25%.
`CC1CCN(S(=O)(=O)c2ccc3c(ccn3CC(=O)NCCc3ccc(Cl)cc3)c2)CC1` was tested, and the “% Inhibition @ 10 uM” value was -0.899%.
For `CC(=O)N(C)c1ccc(NC(=O)Cc2cccc3ccccc23)cc1`, the “% Inhibition @ 10 uM” value was -1.04%.
`O=C(COc1ccccc1)Nc1ncc(Cc2cc(Cl)ccc2Cl)s1` was tested, and the “% Inhibition @ 10 uM” value was 9.47%.
In the case of `CCCCOC(=O)c1cc(-c2ccc(C=C3C(=O)N(C)C(=O)N(C)C3=O)o2)ccc1Cl`, the “% Inhibition @ 10 uM” value is reported as 13.2%.
In the case of `Cc1ccc(-c2c3c(=O)n(C)c(=O)n(C)c3c3c(-c4cccnc4)nc4ccccc4n23)cc1`, the “% Inhibition @ 10 uM” value is reported as -1.43%.
For `O=S(=O)(Nc1ccc(N2CCOCC2)cc1)c1ccccc1`, the “% Inhibition @ 10 uM” value was 3.25%.
In the case of `COc1cc(C)c(Cl)cc1S(=O)(=O)NCC1CCCO1` (centres unmarked), the “% Inhibition @ 10 uM” value is reported as 0.245%.
In the case of `C1CCC(Oc2nc(OC3CCCCC3)nc(OC3CCCCC3)n2)CC1`, the “% Inhibition @ 10 uM” value is reported as -0.215%.
With `CCOc1ccc(-c2nn(-c3ccccc3)cc2C2C(C(=O)OC)=C(C)N=C(C)/C2=C(/O)OC)cc1` (centres unmarked) the “% Inhibition @ 10 uM” value was 1.52%.
`CSc1nc2c(c(=O)n1C1CCOC(C)(C)C1)C1(CCCCC1)Cc1ccccc1-2` (centres unmarked) was tested, and the “% Inhibition @ 10 uM” value was -1.99%.
For `CN(C)CCN1C(=O)C(O)=C(C(=O)c2cc3ccccc3o2)C1c1ccc(O)cc1` (centres unmarked), the “% Inhibition @ 10 uM” value was 0.198%.
With `OC1(c2ccc(Br)cc2)CCN(C2CC3CCC2C3)CC1` (centres unmarked) the “% Inhibition @ 10 uM” value was 1.38%.
For `CCOc1ccccc1C(=O)Nc1cc(C)ccc1O`, the “% Inhibition @ 10 uM” value was 5.44%.
In the case of `N=C1/C(=C\c2ccc(-c3cccc(C(=O)O)c3)o2)C(=O)N=C2SC(N3CCCCC3)=NN12`, the “% Inhibition @ 10 uM” value is reported as 4.88%.
In the case of `CCOC(=O)C1=C(c2ccccc2)N=C2SCC(=O)N2C1c1ccc(OC)cc1` (centres unmarked), the “% Inhibition @ 10 uM” value is reported as 1.26%.
`COc1ccccc1CNC(=O)CS(=O)Cc1nc(-c2ccccc2Cl)oc1C` (centres unmarked) was tested, and the “% Inhibition @ 10 uM” value was -1.05%.
